The series relates to ATP. Briefly: switch fluorescence ratio, 500 uM ATP over buffer (Cy3 cluster intensity, sum of 5 cycles each) (fold (ratio)); higher = stronger signal-on switching upon ATP binding; sequences stand for … in TCGTCGGCAGCGTCAGATGTGTATAAGAGACAGTTTTTTTTTTTTTTTTTTTTTTTTT…TC. The following applies: aptamer strand: ATP DNA aptamer (quencher-CACCTGGGGGAGTATTGCGGAGGAAGG + anchor), 100 nM annealed; ATP concentration: 500 uM; one replicate. The procedure, abridged:
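Values give the fluorescence ratio for each switch-domain sequence, averaged from per-cluster ratios of summed target-cycle to summed buffer-cycle Cy3 intensity. The Cy3-labelled switching-strand clusters sat on a modified Illumina MiSeq flow-cell, were annealed to 100 nM quencher-labelled ATP aptamer, and were imaged in selection buffer, then after 15 min with 500 uM ATP at 22 °C. Five cycles ran with NaOH stripping and re-annealing between them, and clusters outside 100-1000 RFU were excluded.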

Values marked as one replicate rest on one cluster of the flow cell; about a third of the high ones do not repeat.
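Note: ATP exposure 15 min at 22 °C before imaging.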

As for CAGGGGTCTT, the switch fluorescence ratio was found to be 1.37.
The same measure for TTCAACAATT: 1.05.
Then TGGCCTTTCG, with 1.03; and AGAAAGGCAC, with 0.984; and AACAGGTTC, with 1.02.
Then CTAGAATTTC, with 0.973; and GTGGCTGCGA, with 1.03.
With TTAAAATTGG, the switch fluorescence ratio was determined as 1.08.
For CCCTGTGCGT, the switch fluorescence ratio was 1.05.
On to AAGTAGTCGG, for which the switch fluorescence ratio was 0.989.
With ACAGATGCGG, the switch fluorescence ratio was 1.05.
For CGGCCGAGAC, the switch fluorescence ratio is 1.09.
As for GCTTTAGTAA, the switch fluorescence ratio came out at 0.983.
Then TTGACAATGC, with 2.12.
The same measure for TCCGCCTTAT: 2.66; for TAGAGTGCTG: 1.09.
Take TCAACATTAG: the switch fluorescence ratio was 1.05.
Take AAACTTAAAC: the switch fluorescence ratio worked out at 1.01.
Consider GCTTACGTA, for which the switch fluorescence ratio was 1.13.
The same measure for TGTGGGAGTC: 0.997.
With AGAGCGTTTG, the switch fluorescence ratio amounted to 0.979.
In the case of TAGAACACGA, the switch fluorescence ratio was 0.998.
Then AAGTGAGGTA, with 0.951; and AGGAGCGGC, with 0.846.
The same measure for ATCATATACG: 1.03.
The same measure for TCAAAGATGA: 1.04.
Regarding CCCTCTTGG, the switch fluorescence ratio was 1.03.
Turning to AAACTATTT, the switch fluorescence ratio is 0.984.
Then GGGTGCGATC, with 1.04.
For ATATGTACGA, the switch fluorescence ratio was found to be 1.04.
As for GCCATTGAAG, the switch fluorescence ratio was found to be 0.982.
Then TCTTGGAAGT, with 1.02; and ATTCAAATTG, with 1.07; and CTAGGGTCTT, with 0.96.
With AAATGCTAGA, the switch fluorescence ratio came to 1.02.
The same measure for TAAGGCGAAG: 1.05.
TTGCGTAAA: the switch fluorescence ratio stood at 0.96.
As for TATAATCAAC, the switch fluorescence ratio amounted to 1.04.
Turning to CTAACGCCCG, the switch fluorescence ratio was 1.07.
Consider CATTCTTGTG, for which the switch fluorescence ratio was 1.05.
The same measure for TAGCGCTTGT: 1.01; for ATTAGCACC: 1.04.
As for TACGGAGGTG, the switch fluorescence ratio is 1.05.
Then CCAACTTAAG, with 0.946.
The same measure for GCGGACTATC: 1.01; for AAAATGGCTC: 0.989; for TAGGAGCGTA: 1.13.
Then CCGGCGATG, with 1.04.
For the sequence AGTTTGTAAT, the switch fluorescence ratio turned out to be 0.976.
Then CATGGCTTAG, with 1.01; and TGGGAAACCT, with 2.29.
Regarding GCGTCAGCGT, the switch fluorescence ratio worked out at 1.
Consider TAGACACTG, for which the switch fluorescence ratio came to 1.11.
For the sequence GTAAGCAATG, the switch fluorescence ratio was 1.5.
As to GGGCGTCCAG, the switch fluorescence ratio worked out at 1.02.
In the case of TCTCGCAGGA, the switch fluorescence ratio turned out to be 1.02.
Then CTTCGACTTG, with 1.02; and ATTCAATTGG, with 1.01.
Then TCAAAGGTAT, with 0.996; and TGGCGCAATT, with 2.94.
With TTAATATATC, the switch fluorescence ratio was 0.987.
Then TCAGCAGGGT, with 0.997.
The same measure for GCATCATGA: 0.961; for GCCGAGATTA: 0.973; for GTGGTCGTTC: 1.01.
The same measure for GTTCGTCTTC: 0.979; for GCGTTATCGG: 1.05.

These data come from the supplement of paper PMC10126150.
